From publication PMC4336329 (PLoS ONE, 2015)
The campaign covered roughly 310,000 compounds. About 2,200 (0.71%) showed an effect of 50% or more. Effects have a minus sign here. This is one part of the list.

Target: human ether-à-go-go-related gene (hERG) potassium channel (human, UniProt Q12809)
Experiment: primary screen, population patch clamp on CHO cells stably expressing hERG

Sequence of human ether-à-go-go-related gene (hERG) potassium channel (Q12809 whole entry, looked up): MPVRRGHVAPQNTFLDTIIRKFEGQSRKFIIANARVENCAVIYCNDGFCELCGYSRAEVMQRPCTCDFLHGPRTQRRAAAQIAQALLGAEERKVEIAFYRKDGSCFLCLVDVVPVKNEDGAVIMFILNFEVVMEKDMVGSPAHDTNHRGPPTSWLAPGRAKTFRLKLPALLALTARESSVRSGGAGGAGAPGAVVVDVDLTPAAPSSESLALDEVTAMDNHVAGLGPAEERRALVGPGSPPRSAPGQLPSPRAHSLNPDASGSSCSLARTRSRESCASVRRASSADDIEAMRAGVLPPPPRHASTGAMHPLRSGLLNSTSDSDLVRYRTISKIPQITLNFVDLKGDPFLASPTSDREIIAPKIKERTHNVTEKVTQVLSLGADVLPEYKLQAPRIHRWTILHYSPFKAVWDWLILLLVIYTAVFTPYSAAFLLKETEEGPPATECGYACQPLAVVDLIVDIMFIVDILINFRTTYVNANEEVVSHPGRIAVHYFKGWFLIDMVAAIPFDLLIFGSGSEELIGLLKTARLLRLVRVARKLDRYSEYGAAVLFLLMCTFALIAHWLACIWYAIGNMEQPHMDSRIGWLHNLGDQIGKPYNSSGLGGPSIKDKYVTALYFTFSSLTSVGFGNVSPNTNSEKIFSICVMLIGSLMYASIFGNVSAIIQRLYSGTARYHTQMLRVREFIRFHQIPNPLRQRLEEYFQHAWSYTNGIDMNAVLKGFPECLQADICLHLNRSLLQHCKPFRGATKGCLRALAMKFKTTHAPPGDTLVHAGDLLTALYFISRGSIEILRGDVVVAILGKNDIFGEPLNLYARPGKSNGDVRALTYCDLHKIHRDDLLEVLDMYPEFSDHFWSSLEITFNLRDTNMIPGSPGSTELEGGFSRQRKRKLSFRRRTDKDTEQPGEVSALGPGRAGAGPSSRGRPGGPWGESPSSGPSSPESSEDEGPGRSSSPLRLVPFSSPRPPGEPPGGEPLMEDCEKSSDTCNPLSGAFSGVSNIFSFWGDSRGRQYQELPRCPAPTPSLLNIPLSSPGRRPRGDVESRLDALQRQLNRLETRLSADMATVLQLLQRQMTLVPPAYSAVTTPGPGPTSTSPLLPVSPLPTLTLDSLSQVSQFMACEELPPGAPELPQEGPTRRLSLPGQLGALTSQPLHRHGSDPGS

Structure (SMILES) | hERG current change (%, negative = inhibition) at 1uM [%]
COc1cc(NC(=O)C/C(C)=N/NC(=O)Cc2ccccc2)c(OC)cc1Cl | 9.76
C=CC[N+](C)(C)C/C(Cl)=C(\Cl)c1ccccc1.[Br-] | 3.15
Brc1ccc(-c2nnc3sc(CN4CCN(c5ccccc5)CC4)cn23)cc1 | 4.71
O=C(CN1C(=O)COc2ccccc21)N(Cc1ccccc1)Cc1ccccn1 | 3.75
COc1ccc(/C=N/NC2=NS(=O)(=O)c3ccccc32)cc1OC(C)=O | 11
Cc1noc(NS(=O)(=O)c2ccc(N/C=C\C(=O)c3ccncc3)cc2)c1C | -3.24
O=C1c2ccccc2C(Nc2ccc(F)c(Cl)c2)N1Cc1ccco1 (stereo not shown) | 9
CC1(C)Cc2cccc(OCC(=O)N3CCN(S(=O)(=O)c4ccccc4)CC3)c2O1 | 5.84
c1ccc2c(N3CCCCC3)nc(N3CCCCC3)nc2c1 | -3.29
NC(=O)NCCN1CCN(c2ncc(C(F)(F)F)cc2Cl)CC1 | -7.37
CN(C)CCNc1ncnc2c1sc1nc(N3CCCC3)c3c(c12)CC(C)(C)OC3 | 10.9
COC(=O)C1=C(c2ccc(OC(F)(F)F)cc2)C[C@@H]2CC[C@H]1N2C(=O)N1CCC(C)CC1 | 4.11
COc1ccc2nc(NNC(=O)c3cc(=O)c4ccccc4o3)sc2c1 | 8.82
Cc1cccc(Cn2cnc3c(NS(C)(=O)=O)c(C)c(C)cc32)c1 | 13
Cc1cc(=O)oc(C)c1C(=O)NCC1CCCO1 (stereo not shown) | 3.36
CC1(c2ccccc2)CC(C)(C)N(C(N)=O)c2ccccc21 (stereo not shown) | 15.2
Cc1ccc(OCC(O)Cn2c(N)nc3c2c(=O)n(C)c(=O)n3C)cc1 (stereo not shown) | 9.77
CCOc1cc(NC(=O)CC(C)C)c(OCC)cc1NC(=O)CCn1nnc2ccccc21 | 10.2
CCOc1ccc(N(CC(=O)N2CCc3ccccc32)S(=O)(=O)c2c(C)noc2C)cc1 | -2.87
COCCn1c(N/N=C(C)/C=C/c2ccccc2)nc2c1c(=O)[nH]c(=O)n2C | 4.03
O=c1c2ccccc2oc2cc(C#Cc3ccccn3)ccc12 | 15.6
Cc1ccc(S(=O)(=O)NCCC(=O)NCc2ccccc2)cc1 | 7

Structure (SMILES) | hERG current change (%, negative = inhibition) at 1uM [%]
O=C1N/C(=N/S(=O)(=O)Cc2ccccc2)S/C1=C/c1ccc2c(c1)OCO2 | 5.17
CC1=Nc2ccc(C)cc2/C1=C/c1c(N)n2nc(CC(=O)N3CCOCC3)sc2nc1=O | 11.7
COc1cccc(C(=O)N2CCC(n3nccc3NC(=O)C(OC)c3ccccc3)CC2)c1 (stereo not shown) | -4.12
COc1ccc(/C=C/C(=O)Nc2nonc2NC(C)=O)cc1 | 15.5
C=CCN1C(=O)/C(=C/c2ccsc2)SC1=S | 22.5
CCSc1nsc(NC(=O)Nc2ccccc2OC)n1 | 9.7
CCn1cc(/C=N\NC(=O)COc2cccc(C)c2C)c(C)n1 | 0.219
COc1ccc(-n2c(Cc3ccccc3)nnc2SCC(=O)N2CCCc3ccccc32)cc1 | -3.61
Cc1cccc(OCCCC(=O)Nc2ccc(N3CCCCC3)cc2)c1C | 1.12
O=C(CCn1nnc2ccccc2c1=O)N[C@@H](Cc1ccccc1)C(=O)O | 8.66
Cc1cccc(NC(=O)CN2C(=O)N/C(=C/c3cc(C)n(-c4cccnc4)c3C)C2=O)c1 | 12.1
O=C(N1CCOCC1)N1CCN(S(=O)(=O)N2CCOCC2)CC1 | 11.1
O=C(c1ccncc1)N(Cc1cc2ccccc2[nH]c1=O)C1CCCCC1 | 6.99
CC(C)Nc1c(N)c(=O)oc2ccccc12 | 8.29
C[n+]1ccc(/C=N/Nc2nc(Cl)c(C#N)c(Cl)c2Cl)cc1.[Cl-] | 11.2
COc1ccc(OC)c(-n2c(-c3ccc(S(C)(=O)=O)cc3)cc(C=O)c2C)c1 | 8.73
Cc1nonc1CC(=O)N1CCCC(C(=O)c2ccc(Cl)cc2)C1 (stereo not shown) | 8.62
Cc1ccc(NC2(C#N)C(=O)Nc3ccccc32)cc1 (stereo not shown) | 10.8
CSc1cccc(NC(=O)CSc2ccc(C)cc2)c1 | 7.76
O=C(/C=C/Nc1ccc(F)c(Cl)c1)c1ccccc1 | 12.9
CCC(=O)c1cn(CC(=O)Nc2cccc(C)c2)c2ccccc12 | 14
O=C(Nc1ccc(F)c(F)c1)C1CCCN1S(=O)(=O)c1ccc(F)cc1 (stereo not shown) | 12.9

Structure (SMILES) | hERG current change (%, negative = inhibition) at 1uM [%]
O=C(c1cc2ccccc2oc1=O)N1CCN(Cc2ccc3c(c2)OCO3)CC1 | -20.8
CCOC(=O)C1CCN(Cc2cc(=O)oc3cc(C)ccc23)CC1 | -10.4
CCO.O=c1[nH]c(NNC(=S)NC2CCCCC2)nc2c1C1(CCCC1)Cc1ccccc1-2 | 12
CC(OC(=O)CC1CC2CCC1C2)C(=O)Nc1ccc(N2CCOCC2)cc1 (stereo not shown) | 1.87
COc1cc(NC(=O)c2cccs2)c(C(=O)OCC(=O)NCc2ccco2)cc1OC | 4.43
OCCCNC(c1ccccc1)c1ccc(O)cc1 (stereo not shown) | 4.13
O=c1c2nnn(Cc3ccc(Cl)cc3)c2ncn1Cc1ccc(F)cc1 | 11.9
O=S(=O)(NCc1cc(-c2ccccc2Cl)no1)c1ccc(Cl)cc1 | 6.83
CSc1ccc(C(=O)C(C)(C)N2CCOCC2)cc1 | 0.0097
COc1ccc(N(CC(=O)NCC(C)C)S(=O)(=O)c2ccccc2)cc1 | 9.97
Clc1ccc2oc3c(Cl)ncnc3c2c1 | 7.83
CC(C)c1nnc(NC(=O)CCC(=O)N2CCN(c3ccc(Cl)cc3)CC2)s1 | 2.97
COc1cccc(CN(C)CC(=O)Nc2ccccc2C(C)C)c1.O=C(O)C(=O)O | 9.6
COc1ccc(-c2noc(C3CCCN(C(=O)c4ccccc4OC)C3)n2)cc1 (stereo not shown) | 14.5
CCc1ccc(NC(=O)C2CCN(C(=O)N3CCOc4ccccc43)CC2)cc1 | 1.93
Cc1ccccc1NC(=O)CC(=O)c1ccccc1 | 15.2
Cc1nc2c(Cl)cccc2c2c1CC(CBr)O2 (stereo not shown) | 8.11
CCOC(=O)c1cnc2c(C)cccc2c1Nc1cccc(C(=O)O)c1.Cl | 11.3
COc1ccccc1/C=C/C(=O)NCC(=O)N/N=C(/C)c1ccco1 | 11.6
O=C(CNS(=O)(=O)c1cccs1)N1CCCCC1 | 14.2
COc1ccccc1NC(=O)CSc1nc(N)c(-c2ccccc2)c(=O)[nH]1 | 17.4
Cn1c(SCC(N)=O)nnc1-c1ccc(S(=O)(=O)N2CCCC2)cc1 | 17.2

Structure (SMILES) | hERG current change (%, negative = inhibition) at 1uM [%]
O=C(NCc1cccs1)C(Cc1ccccc1)NS(=O)(=O)c1cccs1 (stereo not shown) | -3.51
COc1ccc(CN2CCCC(CO)(Cc3cccc(Cl)c3)C2)cc1OC (stereo not shown) | -29.2
O=C(CSCc1ccc(Cl)cc1)Nc1ccccc1O | 18.2
Cc1c(C(N)=O)c(N)c(C(=O)c2ccccc2)n1-c1ccccc1 | 9.73
O=C(CCNC(=O)C1CCN(S(=O)(=O)c2ccc(F)cc2)CC1)NCc1ccccc1Cl | 15.1
CCN(CC)C(=O)c1ccc(NC(=S)NC(=O)CCc2ccccc2)cc1 | 8.92
Cc1nn2c(N3CCOCC3)cc(C(C)(C)C)nc2c1-c1ccccc1 | 12
O=C1CCC(C(=O)N2CCC(O)(c3ccccc3)CC2)CN1CCc1ccccc1 (stereo not shown) | 6
Cc1ccc(CNC(=O)CSc2nc3ccsc3c(=O)n2Cc2ccc(C(=O)O)cc2)cc1 | 12.8
COCCN(CCOC)C(=O)c1sc2nc(-c3ccccc3)cn2c1C | -1.16
O=C(NC1CCCCCC1)C1CCC(=O)N(Cc2ccccc2F)C1 (stereo not shown) | 16.8
Cn1c(=O)[nH]c(=O)c2c1nc(NCc1ccccc1)n2CC(O)c1ccccc1 (stereo not shown) | 4.24
CC1CCc2cc(F)ccc2N1C(=O)c1cccs1 (stereo not shown) | 9.33
O=C1N/C(=C\c2nc3ccccc3s2)c2ccccc21 | 9.48
COC(=O)[C@H]1[C@@H](C)N(Cc2ccccc2)C(=O)N[C@H]1c1cccc(C(F)(F)F)c1 | 7.06
CCN(CC)CCCN=C(C)C1=C(O)c2ccccc2C1=O | -1.93
Cc1ccc(C(=O)/C=C/c2ccc(F)cc2)o1 | 7.74
C=CCn1c(Cc2cccs2)nnc1SCC(=O)Nc1cccc(OC)c1 | 7.14
CCn1c2ccccc2c2cc(NC(=O)COC(=O)c3ccccc3O)ccc21 | 15
CCOC(=O)c1[nH]cnc1C(=O)NC1CCN(C(=O)OC(C)(C)C)CC1 | 16.6
O=C(COC(=O)c1ccccc1)Nc1ccc(Cl)cc1C(=O)c1ccccc1 | 10.7
CCC(=O)N1CCc2cc(S(=O)(=O)NCCC(=O)N3CC=C(c4ccccc4)CC3)ccc21 | 3.12
